Reference: PubChem BioAssay (NCI)
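Dose response: 5 concentrations. Exposure: 48 h. Format: 96-well plates. Endpoint: linear interpolation; highest concentration if not reached. Here, GI50 denotes the concentration required for 50% inhibition of growth. The concentration for full growth arrest is given as TGI.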 Numbered stars: 1 amine (or outer) side, 2 acyl side, 3 side chain; on linkers, the order of the positions; unused ones are H or OH. Bridge positions count the residues as written; N and C are the ends. Square brackets hold non-standard residues; d marks the D form. Peptide text beside a SMILES is read from it. * marks the point of attachment. X54 = COc1c(N[*:1])cccc1C(=O)O[C@H](C(=O)[C@H](C)C(=O)[*:2])C(C)C; X53 = CC(C)C[C@H](C(=O)[*:2])C(C)C(=O)C1CCCN1[*:1]; NMeY = CN[C@@H](Cc1ccc(O)cc1)C(=O)O; Boc = CC(C)(C)OC(=O)*; Lac = C[C@H](O)C(=O)O; Bn = c1ccc(C*)cc1

Test system: NCI-H322M lung
Experiment: NCI tumour cell line growth inhibition, 48 h

SMILES	GI50 [µM]	TGI [µM]
O=C(Nc1cc(C(F)(F)F)cc(C(F)(F)F)c1)Nc1ccc(OCc2nnc(-c3ccc(Cl)cc3)o2)c(F)c1	3.52	29.8
Cc1ncc(COP(=O)(O)O)c(C)c1O	–	> 100
COc1cc(/C=C2\CC(C)C/C(=C\c3ccc(O)c(OC)c3)C2=O)ccc1O (stereo not drawn)	–	18.2
CCOC(=O)Nc1ccc(C(=O)/C=C/c2ccccc2)cc1	30.2	> 100
CC(=O)N1N=C(c2ccc(Nc3nc(Nc4ccc(F)cc4)nc(Nc4ccc(Cl)cc4)n3)cc2)CC1c1ccc(N(C)C)cc1 (stereo not drawn)	16.2	58.5
CNC(=O)/C(=C/c1ccc(OC)cc1)c1cc(OC)c(OC)c(OC)c1	–	> 55.1
CN(C)CCC(=O)N1CCc2c([nH]c3ccccc23)C1c1cccnc1 (stereo not drawn)	–	> 100
CCOc1ccc2c(c1)C(=O)c1c-2n(CCCN)c(=O)c2cc([N+](=O)[O-])ccc12	0.547	1.94
Cc1ccc(S(=O)(=O)NC(=O)NCC(N)=O)cc1	–	> 100
Cc1cccc2cc3cccc(C(=O)NCCN(C)C)c3nc12	–	3.65
NC(=S)N/N=C/c1ccc(OC(=O)COc2ccccc2)cn1	4.86	> 100
O=C(/C=C/c1ccccc1Br)c1ccccc1	–	28
Cc1ccc(S(=O)(=O)N[C@@H](Cc2ccccc2)C(=O)CCl)cc1	20	38.3
CCOC(=O)C(C)c1nc2cc(C(F)(F)F)ccc2[nH]c1=O (stereo not drawn)	–	> 100
COc1ccc(C(=O)C/C(=N/NC(N)=S)C(=O)Nc2ccccc2)cc1	–	> 100
NC(=NCCO)c1ccc(N2CCCN(c3ccc(C(N)=NCCO)cc3)CC2)cc1	> 100	> 100
CC1(C)CC2C(/C1=N/O)C1(C)CCCC2(C)C1O (stereo not drawn)	–	> 100
COc1ccc(C[C@H]2C(=O)O[C@H](C)[C@H](NC(=O)[C@@H](CC(C)C)C(C)C(=O)C3CCCN3C(=O)[C@H](C)O)C(=O)Nc3cccc(c3OC)C(=O)O[C@@H](C(C)C)C(=O)[C@H](C)C(=O)N[C@@H](CC(C)C)C(=O)N3CCC[C@H]3C(=O)N2C)cc1 (stereo partly drawn) (H-[Lac][X53]T[X54]LP[NMeY](Me); ester 3-C)	–	> 12.5
CC1=C/C(O)CC(=O)Cc2nc(co2)C(=O)N2CCC=C2C(=O)OC(C(C)C)C(C)/C=C\C(=O)NC/C=C\1 (stereo not drawn)	34.1	> 100
CNC(C)[C@H]1CCC2C3CCC4C[C@@H](N(C)C(=O)c5ccccc5)CC[C@]4(C)C3CC[C@@]21C (stereo partly drawn)	1.84	7.91
O=C(Nc1nc(-c2ccccc2)cs1)c1cc(O)c(O)c(O)c1	7.79	78.1
CCCCCCCC(=O)NS(=O)(=O)c1ccccc1	–	> 100
Cc1[nH]c(=O)nc(N/N=C/c2ccc(Cl)cc2)c1C(=O)Nc1ccc(Cl)cc1	–	> 100

SMILES	GI50 [µM]	TGI [µM]
CC(=O)c1c(C)cc2cccc(OC3OC(CO)C(O)C(O)C3O)c2c1O (stereo not drawn) (tested in a mixture with another compound)	–	> 100
C=C(C[C@@H](O)[C@H](C)NC(=O)OCc1ccccc1)C(=O)OC(C)(C)C	–	> 100
CC(=O)Oc1ccccc1C(=O)NCCC[Se]C#N	1.8	4.53
CC(C)(C)Cc1cc(O)ccc1O	–	> 100
O=[N+]([O-])c1cc(Cl)ccc1S(=O)(=O)c1ccc(Cl)cc1[N+](=O)[O-]	–	29.9
Cc1cc(S(=O)(=O)Nc2nc3ccccc3[nH]2)c(SCc2ccccc2)cc1Cl	26	> 100
COc1cc(OC)c2nc(C)c3c(c2c1)OCC3	–	> 100
CCCC(=O)O[C@]1(C)CC[C@@H]2[C@H]3[C@@H]1[C@@H]1C/C(C)=C\CC[C@](C)(OC(=O)[C@@H]2C)[C@H]3O1	> 100	> 100
CSC(=NC#N)S/C=C/C(=O)c1cccc2ccccc12	34.8	> 100
COC(=O)C(CC(C)C)NC(=O)CNC(=O)C(Cc1ccc(OCc2ccccc2)cc1)NC(=O)C(COCc1ccccc1)NC(=O)OC(C)(C)C (stereo not drawn) (Boc-S(Bn)Y(Bn)GL-OMe; configuration not given here)	–	> 100
CC(C)(C)CN1[C@@H]2CCCC[C@H]2N(CC(C)(C)C)P1(=O)C(O)/C=C/c1ccccc1 (stereo partly drawn)	–	> 100
CC1=NN(C(=O)CC(=O)Nc2ccc(Cl)cc2)C(=O)C1N=Nc1ccc(S(=O)(=O)c2ccc(N=NC3C(=O)N(C(=O)CC(=O)Nc4ccc(Cl)cc4)N=C3C)cc2)cc1 (stereo not drawn)	–	> 100
C[CH2][Ge]([CH2]C)([CH2]C)[O]C(=O)C([O][Ge]([CH2]C)([CH2]C)[CH2]C)c1ccccc1 (stereo not drawn)	32.9	> 100
O=C(Nc1ccccc1[N+](=O)[O-])C(=O)C(C(=O)c1ccccc1-c1ccccc1)C1OC(=O)c2ccccc21 (stereo not drawn)	–	31
NC(=S)N/N=C1\CC(c2ccccc2)Nc2ccccc21 (stereo not drawn)	–	> 100
Cc1nnc2n1N=C(c1ccc(-c3ccc([N+](=O)[O-])cc3)o1)CS2	–	> 100
C=C1C(=O)OC2/C=C(\C)CC/C=C(\C)CC(OC(=O)/C(=C/CO)CO)[C@@H]12 (stereo partly drawn)	–	42
COCCNC1CCC(=O)c2[nH]c3ccccc3c21 (stereo not drawn)	–	> 100
C=C1C(=O)O[C@H]2[C@H]1CC/C(COC(=O)C(=O)c1c[nH]c3ccc(Cl)cc13)=C\CC[C@@]1(C)O[C@@H]21	1.8	4.25
O=C([CH-]C(=O)c1ccccc1)c1ccccc1.[CH3-].[CH3-].[CH3-].[Sn+4]	16	71.8
Nc1cc(N)cc(Cc2ccccc2)c1	–	> 100
Nc1ncc(N)c(NCC2(CO)CC(CCc3ccccc3)C2)n1 (stereo not drawn)	–	28.9
Cc1ccc(S(=O)(=O)NNC(C[N+](=O)[O-])c2ccccc2)cc1 (stereo not drawn)	–	69.9

SMILES	GI50 [µM]	TGI [µM]
Oc1cc2c(cc1C(c1ccc3c(c1)OCO3)N1CCN(C(c3ccc4c(c3)OCO4)c3cc4c(cc3O)OCO4)CC1)OCO2 (stereo not drawn)	–	57
CC(C)(C)c1cc(-c2c3nc(c(-c4cc(C(C)(C)C)cc(C(C)(C)C)c4)c4ccc([nH]4)c(-c4cc(C(C)(C)C)cc(C(C)(C)C)c4)c4nc(c(-c5cc(C(C)(C)C)cc(C(C)(C)C)c5)c5ccc2[nH]5)C=C4)C=C3)cc(C(C)(C)C)c1	–	> 100
CNC1=CC(=O)C2=C(C1=O)C1C3=C(C(=O)C(Br)=C(OC)C3=O)C2c2ccccc21 (stereo not drawn)	11.5	21.6
COC(=O)C1Cc2c([nH]c3ccccc23)-c2[nH]c3ccccc3c2CC(NC(C)=O)C(=O)NCC(=O)NCC(=O)N1 (stereo not drawn)	–	> 100
CCC1(CC)C(=O)NN(C(=O)c2ccc(Cl)cc2)C1=O	–	> 100
CCOc1ccc(NC(=O)c2cc3ccccc3cc2O)cc1	> 100	> 100
Cn1c(-c2cccs2)cc(-c2ccsc2)c1-c1cccs1	–	> 100
N#CCCN(CCCN(C(=O)Nc1ccc(NC(=O)N(CCCN(CCC#N)C(N)=O)c2ccccc2)cc1)c1ccccc1)C(N)=O	–	> 100
CC(=O)OCC1OC(n2c(=S)n(-c3ccccc3)c(=O)c3cc(Br)ccc32)C(OC(C)=O)C(OC(C)=O)C1OC(C)=O (stereo not drawn)	–	> 100
COc1cccc2c1C(=O)c1c(O)c3c(c(O)c1C2=O)C[C@@](O)(C(C)=O)C[C@@H]3OC1CC(O)C(O)C(C)O1 (stereo partly drawn)	–	49.8
Brc1ccc(N=Nc2ccc3ccccc3n2)cc1	–	58.6
C=CC[C@@]12CCC(=O)C=C1CCCC2=O	–	> 100
COC1=CC(=O)c2c(n[nH]c2CCNC(=O)OCc2ccccc2)C1=O	–	34.2
C/C(=C(/C)c1cc[n+](C)cc1)c1cc[n+](C)cc1	–	> 75
OCC#CCCCCOCC#Cc1ccccc1C#CCOCCCCC#CCO	16.7	60.8
NC1=NCC(c2ccccn2)C1c1ccc(F)cc1 (stereo not drawn)	–	> 100
Cc1c(-c2ccccc2)c(C#N)c2nnn(C)c(=O)n12	–	> 100
CC1(Cc2cc3c(cc2C2(c4ccc([N+](=O)[O-])cc4)OCCO2)OCO3)OCCO1	–	> 100
O=C1/C(=C/c2ccc(OC(=O)c3ccc(Cl)cc3)cc2)CCC/C1=C\c1ccc(OC(=O)c2ccc(Cl)cc2)cc1	–	> 100
CC(=O)Oc1cc(/C=C/c2ccc(O)cc2)cc(OC(C)=O)c1	–	> 100
O=C(O)c1nnsc1-c1csnn1	–	> 100
Oc1c(Cl)cc(CN(Cc2cc(Cl)c(O)c(Cl)c2)C2CCCCC2)cc1Cl	–	> 100
COC(=O)c1ccc(NC(N)=NCC(C)(C)COc2ccc(C(F)(F)F)cc2)nc1	1.64	3.09

SMILES	GI50 [µM]	TGI [µM]
Oc1ccccc1-c1n[nH]c(-c2ccccc2O)n1	–	> 100
COC(=O)/C=C/c1ccc2c(c1)[C@H](C(=O)OC)[C@@H](c1ccc(O)cc1)O2	–	> 100
COc1ccc2cc(/C=N\NC(=O)Nc3ccc([N+](=O)[O-])cc3)ccc2c1	–	24.8
CC(=O)c1c2c(cc3c1CC1(C3)Cc3cc4c(c(C(C)=O)c3C1)CCCC4)CCCC2	–	> 100
C/C(=C1/N=C(c2ccccc2)OC1=O)c1ccccc1	–	> 100
CCCC(CCC)Oc1ccc(CCCC2=C(O)c3ccccc3C(=O)C2=O)cc1	10.6	24.2
COc1ccc(C2CC(c3cccc(OC)c3)=NN2C(=O)c2cc(OC)c(OC)c(OC)c2)cc1 (stereo not drawn)	> 20.4	> 100
O=C(/N=C1/OC(CN2CCOCC2)CN1C(=O)Nc1ccccc1)Nc1ccccc1 (stereo not drawn)	–	> 100
Nc1ncnc2c1ncn2[C@@H]1C[C@H](NO)[C@@H](O)[C@H]1O	–	> 100
COc1ccccc1Nc1nc2ccccc2c2occc12	11.4	34.1
COc1ccc2c(c1)C1c3ccccc3CCN1CCC2 (stereo not drawn)	–	> 100
[O-]/[N+](=N/c1ncc(-c2ccccc2)cn1)c1ncc(-c2ccccc2)cn1	–	> 100
CC(C)(C)OC(=O)NC(Cc1ccc(OCc2ccccc2)cn1)C(N)=O (stereo not drawn)	–	> 100
Cc1cc(Cl)cc2c1NC(=O)C2(O)CC(=O)c1ccc(F)cc1 (stereo not drawn)	–	> 100
COc1cc(/C=C2\NC(=S)C3Cc4c(OC)c(C)c(OC)c(OC)c4C2N3C)c(OC)c(C)c1OC (stereo not drawn)	–	> 100
Cc1ccc(N(/C=C/C(=O)C(F)(F)F)CC(=O)c2ccc(Cl)c(Cl)c2)cc1	2.28	18.9
CCOC(=O)C1=C(c2ccccc2)NC(c2ccccc2)=C(C(=O)OCC)c2c1c(=O)cc[nH]c2=O	–	> 100
O=[N+]([O-])c1cc2ccc1OCc1cccc(n1)COc1ccc(cc1[N+](=O)[O-])C=NCCCCCCCCN=C2	–	> 100
Cc1ccc(NC(=O)N2CCCCC2)cc1[N+](=O)[O-]	> 100	> 100
COc1ccc(-c2cc(=O)c3ccc(F)cc3[nH]2)cc1	–	> 100
O=C1O/C(=C(/Cl)c2c3ccccc3cc3ccccc23)c2ccccc21	–	> 100
N#Cc1nc(-c2ccc(-c3nc(C#N)c(N)o3)cc2)oc1N	–	> 10
Cc1ccccc1NC(=O)C(=O)CC(=O)C1CCOC1=O (stereo not drawn)	–	> 100
